ChEMBL document CHEMBL1156829
In all, about 5,400 compounds were measured (“IFI”: median about 2, highest 2% from about 22 on). The list shows a part of the results.

Test: NOVARTIS: Inhibition Frequency Index (IFI) - the number of HTS assays where a compound showed > 50% inhibition/induction, expressed as a percentage of the number of assays in which the compound was tested.
Assay type: functional
CCCCn1c(NN=C2C(=O)Nc3ccccc32)nc2c1c(=O)[nH]c(=O)n2C gave an IFI of 1.31%.
Cc1ccc2[nH]c3c(NCCN4CCCCC4)ncnc3c2c1 showed an IFI of 10%.
With CC(CCCNCCO)Nc1ccnc2cc(Cl)ccc12 (centres undefined) the IFI was 2.44%.
Work on Cc1c(Cl)cccc1NC(=S)N1CCCN(c2ccc(C(F)(F)F)cc2[N+](=O)[O-])CC1 yielded an IFI of 2.5%.
For CCOC(=O)C1CCN(C(=O)c2cc(C(C)(C)C)nn2Cc2ccc(Cl)cc2Cl)CC1, the IFI was 1.63%.
CC(C)CNC(=O)c1cnc(NCCC2CCCN2C)nc1NCCc1ccccc1 (centres undefined) showed an IFI of 0.952%.
With O=C(CSc1ccc(Cl)cc1)NN=C1C(=O)Nc2ccccc21 the IFI was 0%.
With O=C(/C=C\c1ccccc1)Nc1ccc2[nH]c(-c3ccc(NC(=O)/C=C/c4ccccc4)cc3)nc2c1 the IFI was 0%.
Work on CCCC1(CCC)NC(=S)N(c2ccc(C)c(C)c2)N1 yielded an IFI of 0%.
Work on COC(=O)CC(NC(=O)c1ccc(C)cc1)c1ccc2c(c1)OCO2 (centres undefined) yielded an IFI of 1.22%.
With Fc1ccc2nc(Nc3nc(-c4ccccn4)cs3)sc2c1 the IFI was 17.6%.
CC(C)(C)CC(C)(C)Nc1c(-c2ccccc2OC(=O)c2cccc(Cl)c2)nc2ccccn12 showed an IFI of 4.72%.
Work on CC(C)CSc1nc2sc3c(c2c(=O)n1-c1ccccc1)CCN(Cc1ccccc1)C3 yielded an IFI of 2.5%.
For O=C(Nc1cccc(C2=NCCN2)c1)c1ccc(C(=O)Nc2cccc(C3=NCCN3)c2)cc1, the IFI was 0.893%.
In the case of CCOC(=O)c1sc(NC(=O)C(C)Sc2nnc(CNC(=O)c3cccc(F)c3)n2-c2cccc(C)c2)c(C(=O)OCC)c1C (centres undefined), the IFI is reported as 0%.
In the case of O=C(NCCc1ccccc1)c1cnc(NCCCn2ccnc2)nc1NC1CCCC1, the IFI is reported as 0.962%.
In the case of Nc1nc(N)nc(C(c2ccccc2)c2ccccc2)n1, the IFI is reported as 0%.
CCOc1ccc(N=C2NC(=O)S/C2=C2/C(=O)Nc3ccc(Br)cc32)cc1 showed an IFI of 1.22%.
C#CCNC(=O)c1ccc(OC2CCN(CC3CCCCC3)CC2)c(Cl)c1 showed an IFI of 9.72%.
O=C(NCC1CCCO1)c1cnc(N2CCN(c3ncccn3)CC2)c2ccccc12 (centres undefined) gave an IFI of 6.06%.
COc1ccc(OC)c(-c2ccc(O)c(CNC3CCCCCC3)c2)c1 showed an IFI of 2.97%.
In the case of CCOC(=O)N1CCN(C(=O)C(NC(=O)C2CCC(C)CC2)C(C)C)CC1 (centres undefined), the IFI is reported as 3.85%.
In the case of COc1ccc(-c2cc(C(=O)Nc3cc(Oc4ccc(NC(C)=O)cc4)cc([N+](=O)[O-])c3)c3ccccc3n2)cc1, the IFI is reported as 3.41%.
For CCCCCOC(=O)C1=C(C)NC2=C(C(=O)CCC2)C1c1ccc(OC)c(Br)c1 (centres undefined), the IFI was 2.22%.
With CCOC(=O)c1nnn(-c2nonc2N)c1-c1ccc(Br)cc1 the IFI was 0%.
For CC(C)(c1ccc(Oc2ccc(NC(=O)C(F)(F)F)cc2)cc1)c1cccc(Oc2ccc(NC(=O)C(F)(F)F)cc2)c1, the IFI was 0%.
For Cc1ccc(-c2c[n+](Cc3ccc(Cl)cc3)c3n2CCC3)cc1, the IFI was 10%.
Work on COc1cccc(N2CCN(CCNCCOc3ccccc3)[C@@H](Cc3ccccc3)C2)c1 yielded an IFI of 2.44%.
With CCOC(=O)C1=C(C)NC2=C(C(=O)CC(c3ccc(OC)cc3)C2)C1c1ccsc1 (centres undefined) the IFI was 0%.
With CCOc1cc(C(=O)Nc2ccc(-c3nc4ccccc4[nH]3)cc2)cc(OCC)c1OCC the IFI was 4.71%.
Molecule CCOC(=O)C1=C(CC)NC2=C(C(=O)CCC2)C1c1ccc(N(C)C)cc1 (centres undefined) has an IFI of 1.43%.
Work on COC(=O)c1c(C)oc2ccc(N(C(=O)c3ccc(C)cc3)S(=O)(=O)c3ccccc3)cc12 yielded an IFI of 0%.
For O=C(O)/C=C\C(=O)N(C1CCCCC1)C1CCCCC1, the IFI was 0%.
COc1ccc(OC)c(-c2ccc(O)c(CNCc3ccccc3OC)c2)c1 showed an IFI of 0.848%.
Work on COc1ccc(-c2c[n+](CC(=O)c3cccc(OC)c3)c3n2CCC3)cc1 yielded an IFI of 2.5%.
Nc1c(C(=O)Nc2ccc(F)cc2)sc2nc3c(c(-c4cccs4)c12)CCCCC3 gave an IFI of 8.97%.
COc1ccc(CNC2CCN(CCN3CCCCC3)C(c3ccc(OCc4ccccc4)cc3)C2)cc1OC (centres undefined) gave an IFI of 11.1%.
Work on CCN1/C(=C/c2cccc[n+]2C)Sc2ccc(C)cc21 yielded an IFI of 7.69%.
CCc1ccc(C2C(C(=O)Nc3ccccc3)=C(C)Nc3c(C(=O)Nc4ccc(C)cc4)cnn32)cc1 (centres undefined) showed an IFI of 0%.
With CCOC(=O)C1=CN(C)C=C(C(=O)OCC)C1c1cc(Br)c(OCC)c(OC)c1 the IFI was 3.45%.
For CC(C)CNC(=O)c1cnc(NCCc2ccncc2)nc1NCCc1ccccc1, the IFI was 0.962%.
With O=C(NCc1ccco1)C1CCN(S(=O)(=O)c2ccc(Cl)cc2)CC1 the IFI was 0.885%.
With COc1ccc(OC)c(-c2ccc(O)c(CNCC3CC4C=CC3C43CC3)c2)c1 (centres undefined) the IFI was 1.71%.
CCOC(=O)c1cnc2ccc(Cl)cc2c1Nc1ccc(OC)c(OC)c1 gave an IFI of 0%.
Molecule CSc1ccccc1CN1CCc2nc(N3CCCCC3)sc2C1 has an IFI of 5.56%.
Molecule O=C(NC1CC1)C1CCN(S(=O)(=O)c2ccc(Cl)cc2)CC1 has an IFI of 0%.
For O=C(NCc1ccco1)C1CCN(S(=O)(=O)c2ccc(Br)cc2)CC1, the IFI was 0%.
Work on O=C1C(=O)N(Cc2cccc3ccccc23)c2ccc(Br)cc21 yielded an IFI of 0%.
For CCOC(=O)NN=CC=NNC(=O)OCC, the IFI was 1.09%.
For O=C(Nc1ccc(-c2nc3cc(NC(=O)C(c4ccccc4)c4ccccc4)ccc3[nH]2)cc1)C(c1ccccc1)c1ccccc1, the IFI was 0%.
Molecule CCCCCCN(C(=O)c1ccc(C(C)(C)C)cc1)C(CC)c1nc2ccccc2c(=O)n1-c1ccc(F)cc1 (centres undefined) has an IFI of 3.88%.
With Cc1cccc2cc(C(c3nnnn3C3CCCC3)N3CCCC4(CCCCC4)C3)c(=O)[nH]c12 (centres undefined) the IFI was 3.88%.
Molecule CCC(c1nc2ccccc2c(=O)n1-c1ccc(F)c(Cl)c1)N(CCc1ccccc1)C(=O)COc1ccccc1 (centres undefined) has an IFI of 1.87%.
With CC1CCCCN1CCCNc1ncc(C(=O)NCC2CCCO2)c(NCCc2ccccc2)n1 (centres undefined) the IFI was 2.88%.
With Nc1ccc(-c2nc3cc(Oc4ccc5[nH]c(-c6ccc(N)cc6)nc5c4)ccc3[nH]2)cc1 the IFI was 15.4%.
Clc1ccc(-c2nc3cc(Cl)cnc3[nH]2)cc1 gave an IFI of 0%.
For CCc1ccc(O)c(-c2cc(C(=O)Nc3cccnc3)[nH]n2)c1, the IFI was 6.67%.
With CCOCc1nnc(NC(=O)COc2ccc(Cl)cc2Cl)s1 the IFI was 0%.
Work on CC(=O)N(C1=C(N2CCN(C)CC2)C(=O)c2ccccc2C1=O)c1cc(C)cc(C)c1 yielded an IFI of 7.14%.
Work on Cc1nnc2sc(SCc3ccc([N+](=O)[O-])cc3)nn2c1=O yielded an IFI of 0%.
For Cc1nn(CC(O)Cn2c3ccc(Cl)cc3c3cc(Cl)ccc32)c(C)c1Br (centres undefined), the IFI was 0%.
CCCc1ccc(OCCNC(=O)CCNC(=O)Nc2cccc(Cl)c2)cc1 gave an IFI of 0%.
For CCCCNC1=CC(=O)C(=O)c2ccccc21, the IFI was 15.4%.
Molecule Oc1ccc(-c2nc(-c3ccc4oc5ccc(-c6[nH]c(-c7ccc(O)cc7)nc6-c6ccccc6)cc5c4c3)c(-c3ccccc3)[nH]2)cc1 has an IFI of 0%.
Molecule COc1cccc(N2C(=O)/C(=C/c3cccnc3)SC2=S)c1 has an IFI of 0%.
Molecule O=C1NN(c2ccc(Br)cc2)C(=O)/C1=C\c1c(O)ccc2ccccc12 has an IFI of 0%.
With Cn1c(=O)n(C)c2cc(C=NN=c3[nH]cc(-c4ccccc4)s3)ccc21 the IFI was 0%.
With CC(C)CNC(=O)c1cnc(NCCCN(C)C)nc1NCC1CCCCC1 the IFI was 3.88%.
For Fc1ccc(CCNc2ncnc3c2[nH]c2ccccc23)cc1, the IFI was 14.6%.
Molecule Cc1ccc(Cn2c(N3CCC(C(=O)NCc4ccccn4)CC3)nc3ccccc32)cc1 has an IFI of 0%.
With Nc1ccc2nc(-c3cccc(-c4nc5ccc(N)cc5s4)c3)sc2c1 the IFI was 11.9%.
For C=CCNC(=S)N1CCN(c2ccc([N+](=O)[O-])cc2)CC1, the IFI was 0%.
O=C(NNc1c2ccccc2nc2ccccc12)Nc1ccccc1 showed an IFI of 7.69%.
In the case of COc1ccc(C2=C(c3ccc(OC)cc3)C3(c4ccccc4)C(=O)C2(c2ccccc2)C2C(=O)N(c4ccc(F)cc4)C(=O)C23)cc1 (centres undefined), the IFI is reported as 0%.
With CC1CCN(S(=O)(=O)c2ccc(C(=O)Nc3sc4c(c3C(N)=O)CCN(C)C4)cc2)CC1 the IFI was 0%.
For COc1ccc2nc(NC(N)=NC(=O)Nc3ccccc3)nc(C)c2c1, the IFI was 6.45%.
Molecule Cc1cc(Nc2ccc(Br)cc2)nc2ccccc12 has an IFI of 7.58%.
Clc1ccccc1CN1CCc2nc(N3CCCCC3)sc2C1 gave an IFI of 6.94%.
Molecule Cc1cc(C)c(S(=O)(=O)NCc2ccc(Cl)cc2)c(C)c1 has an IFI of 0%.
Work on Cn1nc(C(F)(F)F)c(-c2ccc(F)cc2)c1NC(=O)Nc1ccccc1 yielded an IFI of 4.17%.
In the case of COCCOC(=O)C1=C(C)NC2=C(C(=O)CC(c3ccc(OC)c(OC)c3)C2)C1c1ccccc1Cl (centres undefined), the IFI is reported as 2.33%.
Work on O=C1C(N2CCCCC2)=C(N2CCCCC2)C(=O)c2ccccc21 yielded an IFI of 0%.
With CC(=O)Nc1ccc(S(=O)(=O)N2CCC(c3nc(-c4cccnc4)no3)CC2)cc1 the IFI was 15.8%.
For CC1=C(CC(=O)c2ccccc2)C(=O)c2ccccc2C1=O, the IFI was 7.41%.
CN(C)CCNC(=O)c1c[nH]c2ccc(S(=O)(=O)N3CCc4ccccc43)cc2c1=O showed an IFI of 0%.
Work on CC(C)(C)NCC(O)COc1cccc2oc3ccccc3c12 (centres undefined) yielded an IFI of 7.69%.
For CC1(C)N=C(N)N=C(N)N1c1ccc(I)cc1, the IFI was 5.97%.
In the case of COc1ccc2oc(=O)c(C(=O)N(C)c3ccc(S(N)(=O)=O)cc3)cc2c1, the IFI is reported as 0%.
For COc1ccc2[nH]c3ccccc3c(=O)c2c1, the IFI was 4.44%.
COc1cc2nc(Nc3cccc(F)c3)nc(N)c2cc1OC gave an IFI of 6.25%.
In the case of O=C(Nc1ccccc1F)NC1CC2CCCC(C1)N2CCc1ccccc1 (centres undefined), the IFI is reported as 1.3%.
In the case of COc1cccc(C(Nc2cc(C)ccn2)c2ccc3cccnc3c2O)c1 (centres undefined), the IFI is reported as 21.4%.
Work on COc1ccc(-n2nc(C(C)(C)C)cc2NC(=O)CN(C(=O)c2ccc(C(C)(C)C)cc2)C(C)C)cc1 yielded an IFI of 1.87%.
In the case of Cc1ccnc(NC(c2ccc(Cl)cc2Cl)c2ccc3cccnc3c2O)c1 (centres undefined), the IFI is reported as 15.4%.
With CN(Cc1cc(-c2ccc(F)cc2)ccc1O)CC(O)c1ccccc1 (centres undefined) the IFI was 0.855%.
c1ccc(-c2nc3cc4nc(-c5ccccc5)[nH]c4cc3[nH]2)cc1 gave an IFI of 8.87%.
Molecule OC(CNC1CCN(Cc2ccccc2)CC1)COc1ccc(Br)cc1 (centres undefined) has an IFI of 0.826%.
CC[n+]1c(/C=C/N(C)c2ccccc2)n(-c2ccccc2)c2ccc(-c3nc4ccccc4s3)cc21 gave an IFI of 29.2%.
Molecule COc1cc(NC(C)CCCN(Cc2ccccc2OC)C(=O)Nc2ccccc2OC)c2ncccc2c1 (centres undefined) has an IFI of 1.89%.
